Experimental data as given in PubChem BioAssay AID1768 (National Center for Advancing Translational Sciences (NCATS), 2009).
Among all 270,000 compounds or so, about 620 (0.23%) were called active. The shares of active, inactive and inconclusive entries below differ from those in the screen. The call rests on the fitted dose curve; in most records, active means well fitted inhibition curve with a large enough effect in the polarisation, with a control signal flat (not every such curve was filed as active); inconclusive means small, poorly fitted or top-dose-only effect, or effect the other way, or a change in a side signal; inactive means no such curve, though single readings can be large or run the other way; the % refers to the polarisation. A potency beside an inconclusive call is a rough fit, not a confirmed value. “Side channel” marks fits to a control or component signal instead of the main read-out.
Potency means the concentration at half of the fitted maximal effect; tags describe the fitted curve by direction and shape or compound fluorescence and quenching.
Wherever FP activity change, negative = inhibition is given: % of control where 0% means no effect.

These molecules were tested against Menin (Homo sapiens) (UniProt O00255) (assay: qHTS Assay for Inhibitors Targeting the Menin-MLL Interaction in MLL Related Leukemias: Competition With Texas Red Labeled MLL-derived Mutant Peptide). Details: fluorescence polarization; FP activity change, negative = inhibition: at 61.6 µM (top of the series).
Sequence of UniProt O00255 (O00255 whole entry, looked up): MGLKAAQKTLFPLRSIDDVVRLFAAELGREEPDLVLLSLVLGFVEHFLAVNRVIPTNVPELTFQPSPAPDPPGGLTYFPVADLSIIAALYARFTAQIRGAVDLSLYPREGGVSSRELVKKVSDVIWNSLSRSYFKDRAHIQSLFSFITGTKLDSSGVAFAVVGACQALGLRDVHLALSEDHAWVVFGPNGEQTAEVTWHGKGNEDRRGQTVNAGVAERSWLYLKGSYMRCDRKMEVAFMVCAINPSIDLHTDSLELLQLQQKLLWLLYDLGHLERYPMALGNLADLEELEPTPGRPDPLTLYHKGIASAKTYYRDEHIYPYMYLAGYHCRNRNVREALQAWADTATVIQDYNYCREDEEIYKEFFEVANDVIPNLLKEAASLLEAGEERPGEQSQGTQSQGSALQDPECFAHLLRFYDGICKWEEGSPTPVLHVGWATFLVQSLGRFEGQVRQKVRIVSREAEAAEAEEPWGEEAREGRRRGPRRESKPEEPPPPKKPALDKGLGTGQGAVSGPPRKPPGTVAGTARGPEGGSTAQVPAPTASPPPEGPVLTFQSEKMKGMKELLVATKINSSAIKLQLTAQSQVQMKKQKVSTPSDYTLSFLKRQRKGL
For O=C(NCc1ccccc1Cl)C1CCN(S(=O)(=O)c2cccc3nonc23)CC1, the Potency was inconclusive: 39.8 µM [fluorescent, side channel, single point]. In the case of O=C(Nc1ccccc1C(=O)O)c1cccc(NC(=O)c2ccccc2Cl)c1, the Potency is reported as inconclusive: 8.91 µM [quencher, side channel, partial curve]. In the case of CCOC(=O)c1c(C)c(C(=O)N2CCN(c3ccc(F)cc3)CC2)c(C)n1C, the Potency is reported as inconclusive: 17.8 µM [fluorescent, side channel, partial curve]. With Cc1ccccc1NC(=S)c1ccc2ccccc2n1 the Potency was inconclusive: 15.8 µM [quencher, side channel, partial curve]. With O=C(CCn1cccc1)Nc1nccs1 the Potency was inconclusive: 1.58 µM [inhibitor, full curve, poor fit]. For Cc1ccc2nc(NC(=S)NC(=O)c3cccs3)sc2c1, the Potency was inconclusive: 10 µM [quencher, side channel, partial curve]. In the case of COC(=O)c1nn(-c2ccc3c(c2)OCO3)cc1O, the Potency is reported as “inactive”. For COc1ccc(N(C(=O)c2snc(C(N)=O)c2N)C(C(=O)NC2CCCC2)c2ccc(OC)c(OC)c2)cc1 (centres undefined), the Potency was “inactive”. CC(=O)OCCCNc1cc(SCc2ccco2)c2nonc2c1[N+](=O)[O-] was tested, and the Potency was inconclusive: 31.6 µM [quencher, side channel, single point]. With CCCNC(=O)Cn1c(=O)/c(=C\c2ccc(-c3ccc([N+](=O)[O-])cc3)o2)s/c1=C\C(=O)C(C)(C)C the Potency was active: 17.8 µM. For Cc1cccc(Nc2ncccc2C(=O)NCc2cccs2)c1C, the Potency was inconclusive: 10 µM [quencher, side channel, partial curve]. For Nc1n[nH]c(N)c1N=Nc1ccc(Cl)cc1, the Potency was inconclusive: 28.2 µM [quencher, side channel, single point]. CCNC(=S)N(CCc1c(C)[nH]c2ccc(Cl)cc12)Cc1ccco1 was tested, and the Potency was inconclusive: 10 µM [quencher, side channel, partial curve]. With Cc1ccc(N=Nc2ccc(O)c(/C=N\NC(=O)c3ccc(N)cc3)c2)cc1C the Potency was inconclusive: 3.98 µM [quencher, side channel, full curve]. CCN(CC)S(=O)(=O)c1ccc(/C=C/C(=O)OCC(=O)Nc2ccc(C(N)=O)cc2)cc1 was tested, and the Potency was inconclusive: 31.6 µM [fluorescent, side channel, single point]. With NCCOc1ccc(C23CC4CC(CC(C4)C2)C3)cc1 the Potency was inconclusive: 10 µM [fluorescent, side channel, partial curve]. With CCOC(=O)C1CCN(S(=O)(=O)c2nc3nc(C)cc(C)n3n2)CC1 the Potency was inconclusive: 6.31 µM [inhibitor, single point]. CC(C)(C)C(=O)NC(=S)Nc1ccccc1N1CCCC1 was tested, and the Potency was inconclusive: 4.47 µM [inhibitor, full curve, poor fit]. With NC(=O)c1ccc(CN2CCc3ccccc3C2)cc1 the Potency was inconclusive: 39.8 µM [inhibitor, partial curve]. For COc1ccc(Nc2nccc(-c3ccc(C#N)cc3)n2)cc1, the Potency was inconclusive: 7.94 µM [quencher, side channel, partial curve]. For O=C(CN1CCN(c2ccccn2)CC1)Nc1cccc(F)c1, the Potency was inconclusive: 3.98 µM [quencher, side channel, single point]. For O=C(NN=C1CCCC1)c1ccccc1OCCOc1ccccc1, the Potency was inconclusive: 8.91 µM [fluorescent, side channel, partial curve]. In the case of CCOC(=O)c1ccccc1NC(=O)CC1SC(=NC)N(C)C1=O (centres undefined), the Potency is reported as inconclusive: 39.8 µM [inhibitor, single point]. Cc1ccc(CNCC(O)(c2ccccc2)c2ccc(Cl)cc2)cc1 (centres undefined) was tested, and the Potency was inconclusive: 7.94 µM [fluorescent, side channel, partial curve]. With CN(CCC(=O)Nc1ccc2c(c1)OCO2)Cc1ccccc1 the Potency was inconclusive: 10 µM [inhibitor, partial curve]. Cc1cccc(OCCCC(=O)N2CCCCCC2)c1C was tested, and the Potency was inconclusive: 17.8 µM [fluorescent, side channel, partial curve]. CCCCn1c(=NC(=O)c2cccnc2)c(C#N)cc2c(=O)n3cccc(C)c3nc21 was tested, and the Potency was “inactive”. With O=C(CCc1ccccc1)NC(=S)Nc1ccccc1Br the Potency was inconclusive: 35.5 µM [quencher, side channel, single point]. Oc1c(Cl)cc(Cl)cc1/C=N/c1nccs1 was tested, and the Potency was inconclusive: 39.8 µM [quencher, side channel, single point]. Cc1nn(-c2ccccc2)c2sc(C(=O)C(C#N)c3ccccn3)cc12 (centres undefined) was tested, and the Potency was inconclusive: 15.8 µM [quencher, side channel, partial curve]. O=C(CCCc1ccc(-c2ccccc2F)cc1)Nc1ccc(O)cc1 was tested, and the Potency was inconclusive: 12.6 µM [quencher, side channel, partial curve]. For CCN1CCN(Cc2cccc(Oc3ccccc3)c2)CC1, the Potency was “inactive”. In the case of COc1ccccc1CNCCCCCCNCCCCCCCCNCCCCCCNCc1ccccc1OC, the Potency is reported as inconclusive: 20 µM [fluorescent, side channel, partial curve, poor fit]. In the case of C=C[C@@]1(C)CC[C@H](O)[C@H]2C(=O)CCC[C@@H]21, the Potency is reported as “inactive”. In the case of COc1cccc(-c2nc(SCC(=O)Nc3nc(-c4ccccc4)c(C)s3)[nH]c(=O)c2C#N)c1, the Potency is reported as inconclusive: 31.6 µM [quencher, side channel, partial curve]. N#CCCCS(=O)(=O)c1nnnn1C1CCCCC1 was tested, and the Potency was “inactive”. With Cc1ccnc(NC(=O)c2ccc([N+](=O)[O-])s2)c1 the Potency was inconclusive: 14.1 µM [quencher, side channel, single point]. With CN(C)N1C(N)=C(C#N)C(c2ccc(Br)cc2)C2=C1CC(C)(C)CC2=O (centres undefined) the Potency was inconclusive: 31.6 µM [fluorescent, side channel, single point]. In the case of COc1c(O)c(O)cc2c1oc1c3cc(C)ccc3oc(=O)c21, the Potency is reported as inconclusive: 14.1 µM [quencher, side channel, partial curve]. Fc1cccc(Cl)c1C1Nc2cccc3cccc(c23)N1 was tested, and the Potency was inconclusive: 25.1 µM [quencher, side channel, partial curve]. With S=C(NCc1ccc(Cl)c(Cl)c1)Nc1ccc2c(c1)OCO2 the Potency was inconclusive: 35.5 µM [quencher, side channel, single point]. Cc1ccc(OCc2nc(C#N)c(NCc3ccc4c(c3)OCO4)o2)cc1 was tested, and the Potency was inconclusive: 11.2 µM [quencher, side channel, partial curve]. In the case of CCOC(=O)C1(Cc2cccc(OC)c2)CCN(Cc2cc(OC)ccc2OC)CC1, the Potency is reported as inconclusive: 10 µM [inhibitor, partial curve]. In the case of CCCCc1cc2c(cn1)=C(OC(=O)c1ccco1)C(C)(OC(=O)CC)C(=O)C=2 (centres undefined), the FP activity change, negative = inhibition is reported as inactive: 11% [at 11.7 µM]. C/C(=N\NC(=S)Nc1cccc(C)c1)c1cc2ccccc2o1 was tested, and the Potency was inconclusive: 22.4 µM [quencher, side channel, single point]. Cc1cccc(NC(=S)N/N=C/c2ccc([N+](=O)[O-])s2)c1 was tested, and the Potency was inconclusive: 12.6 µM [quencher, side channel, partial curve]. With COc1cccc(-c2nc(NC(C)(C)C)c3ccccc3n2)c1O the Potency was inconclusive: 12.6 µM [quencher, side channel, partial curve]. In the case of Cc1cc2nc(C3CCN(CC4COc5ccccc5O4)CC3)[nH]c2cc1C (centres undefined), the Potency is reported as “inactive”. For C=CC[n+]1c(-c2ccc(Cl)cc2Cl)csc1Nc1c(C)n(C)n(-c2ccccc2)c1=O, the Potency was inconclusive: 3.16 µM [fluorescent, side channel, partial curve]. For Cc1ccc(-c2nc(CSCC(=O)N3CCN(c4ccccn4)CC3)c(C)o2)cc1, the Potency was inconclusive: 14.1 µM [fluorescent, side channel, partial curve]. For Cc1cccc(C2=NN(c3ccccc3)[C@H](CO)[C@H]2C)c1, the Potency was inconclusive: 25.1 µM [quencher, side channel, partial curve]. For COc1cccc2c(C)c(C(=O)O)[nH]c12, the Potency was inconclusive: 22.4 µM [quencher, side channel, single point]. In the case of CC(C)CC(=O)Nc1ccc2nn(-c3ccccc3)nc2c1, the Potency is reported as inconclusive: 10 µM [quencher, side channel, single point]. CCC(=O)Nc1ccc(Cl)c(NC(=S)NC(=O)COc2ccc(Cl)cc2)c1 was tested, and the Potency was inconclusive: 11.2 µM [quencher, side channel, partial curve]. For COc1cc(/C=N/NC(=O)Cc2ccccc2)ccc1Oc1ccc([N+](=O)[O-])cc1[N+](=O)[O-], the Potency was inconclusive: 7.94 µM [quencher, side channel, full curve]. For O=C(NCc1cccc(Cl)c1)c1ccc2c(c1)OCCO2, the Potency was “inactive”. In the case of S=C(NCc1ccccc1)N1CCn2cccc2C1c1cccnc1 (centres undefined), the Potency is reported as inconclusive: 10 µM [quencher, side channel, single point]. For Cc1ccc(S(=O)(=O)N/N=C/c2ccc(OS(=O)(=O)c3ccc(C)c([N+](=O)[O-])c3)cc2)cc1, the Potency was inconclusive: 8.91 µM [quencher, side channel, partial curve]. In the case of O=C(Nc1ccc([N+](=O)[O-])cc1)Nc1ccc(N2CCOCC2)c2nonc12, the Potency is reported as inconclusive: 12.6 µM [quencher, side channel, partial curve].
